Hit rate of the full screen: of about 310,000 compounds, about 2,200 (0.71%) showed an effect of 50% or more. Effects have a minus sign here. Some of the results follow.
What follows are compounds tested against human ether-à-go-go-related gene (hERG) potassium channel (human, UniProt Q12809) (assay: primary screen, population patch clamp on CHO cells stably expressing hERG).
human ether-à-go-go-related gene (hERG) potassium channel, sequence (Q12809 whole entry, looked up): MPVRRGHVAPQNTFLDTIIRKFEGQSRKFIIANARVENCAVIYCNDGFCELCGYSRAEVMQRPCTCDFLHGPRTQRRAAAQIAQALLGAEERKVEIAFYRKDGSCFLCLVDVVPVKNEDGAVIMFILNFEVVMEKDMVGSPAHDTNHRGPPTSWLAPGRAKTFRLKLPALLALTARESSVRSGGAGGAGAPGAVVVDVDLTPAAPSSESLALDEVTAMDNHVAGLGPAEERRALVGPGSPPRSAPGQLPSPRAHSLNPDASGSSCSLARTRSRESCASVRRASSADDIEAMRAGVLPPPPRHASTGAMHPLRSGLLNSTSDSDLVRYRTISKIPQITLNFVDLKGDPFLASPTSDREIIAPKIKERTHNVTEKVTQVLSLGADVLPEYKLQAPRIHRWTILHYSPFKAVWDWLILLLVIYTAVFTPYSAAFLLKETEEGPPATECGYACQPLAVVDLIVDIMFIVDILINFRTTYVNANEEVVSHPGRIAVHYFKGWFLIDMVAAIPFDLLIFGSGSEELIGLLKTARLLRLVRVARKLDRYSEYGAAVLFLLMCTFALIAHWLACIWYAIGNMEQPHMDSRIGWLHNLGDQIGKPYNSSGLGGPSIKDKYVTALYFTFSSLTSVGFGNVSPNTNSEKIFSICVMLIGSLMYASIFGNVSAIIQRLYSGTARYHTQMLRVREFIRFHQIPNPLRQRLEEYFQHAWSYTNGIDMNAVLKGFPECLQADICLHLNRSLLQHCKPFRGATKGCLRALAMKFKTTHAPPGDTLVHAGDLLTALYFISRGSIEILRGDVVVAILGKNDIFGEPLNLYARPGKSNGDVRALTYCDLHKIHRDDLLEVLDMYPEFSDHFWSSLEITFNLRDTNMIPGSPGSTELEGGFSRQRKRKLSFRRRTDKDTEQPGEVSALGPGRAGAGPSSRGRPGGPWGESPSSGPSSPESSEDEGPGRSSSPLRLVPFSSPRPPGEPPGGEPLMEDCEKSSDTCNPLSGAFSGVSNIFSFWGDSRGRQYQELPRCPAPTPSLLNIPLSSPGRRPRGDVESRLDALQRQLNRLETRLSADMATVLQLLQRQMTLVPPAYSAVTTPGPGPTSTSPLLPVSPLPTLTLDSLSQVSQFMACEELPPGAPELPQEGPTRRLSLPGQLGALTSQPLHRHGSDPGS

| SMILES | hERG current change (%, negative = inhibition) at 1uM [%] |
| --- | --- |
| CC1CC(C)(C)NC(=S)N1CCCC(=O)N1CCN(c2ccccc2F)CC1 (stereo not drawn) | -8.48 |
| O=C(CSc1nnnn1C1CC2C=CC1C2)Nc1ccc(C(=O)O)cc1 (stereo not drawn) | -4.89 |
| O=C(/C=C/c1ccccc1Cl)Nc1ccc2c(c1)C(=O)NC2=O | 13.2 |
| COc1cccc(Nc2ncccc2C(=O)Nc2ccccc2)c1 | 11.5 |
| Cc1cc(=O)[nH]c(SCC(=O)Nc2nnc(CC(C)C)s2)n1 | 7.6 |
| Cc1ccnc(NC(=O)/C=C/c2cccs2)c1 | 15.7 |
| Cc1ccc(NC(=O)C2CCN(C(=O)NC3CCCCC3)CC2)cc1Cl | 14.8 |
| COc1ccc(CNC(=O)CN(c2cccc(OC)c2)S(C)(=O)=O)cc1 | 12.2 |
| COc1ccc(NC(=O)c2c[nH]c(=O)n(-c3ccc(C)c(C)c3)c2=O)cc1OC | 11.2 |
| CC1=Nn2c(nc3sc4c(c3c2=O)CCCC4)SC1 | -5.24 |
| CCCNC(C)C(=O)Nc1c(C)csc1C(=O)OC.Cl (stereo not drawn) | 2.53 |
| CCC(C)(C)NC(=O)C(c1cccc(OC)c1OC)N(CCC(C)C)C(=O)CCC(=O)Nc1cc(C)on1 (stereo not drawn) | 13.8 |
| Cc1onc(-c2ccccc2Cl)c1C(=O)OCC(=O)N1CCCc2ccccc21 | 5.67 |
| CCn1cc(C(C)NC(=O)Nc2ccc3c(c2)OCO3)c(C)n1 (stereo not drawn) | 37.7 |
| CCCCN(C(=O)COC(=O)CSc1cc(C)c2ccccc2n1)c1c(N)n(CCC)c(=O)[nH]c1=O | 8.32 |
| CCn1c(CNc2ccccc2Cl)nnc1SCC(=O)OC1CCCCC1 | 14.1 |
| CCN(CC)S(=O)(=O)c1ccc(Nc2cc(C)nc3ncnn23)cc1 | -12.7 |
| CC(=O)N1CCc2cc(NC(=O)c3ccc(C)cc3)ccc21 | 14.2 |
| CC1(C)Cc2nc(-c3ccccc3)nc(NNC(=O)c3ccco3)c2CO1 | 16.1 |

| SMILES | hERG current change (%, negative = inhibition) at 1uM [%] |
| --- | --- |
| Cc1ccc(N2C(=O)CC(Cc3cc(C)cc(C)c3)C2=O)cc1 (stereo not drawn) | 10.7 |
| CCN(CC)S(=O)(=O)C1CCS(=O)(=O)C1 (stereo not drawn) | 19.4 |
| O=C(c1ccc(CSc2ccccc2)cc1)N1CCCCCC1 | 14.3 |
| O=C(O)CSc1nnc(-c2cccs2)n1-c1ccc(Cl)cc1 | 6.42 |
| O=c1c2ccccc2c(-c2ccccc2)nn1Cc1c(Cl)cccc1Cl | -3.75 |
| CC(=O)Nc1ccc(-n2cnnn2)cc1 | 11.2 |
| CN(C)CCN(Cc1ccccc1)c1ccccn1.Cl | -19.1 |
| CC(OC(=O)c1ccc(CN2CCCC2=O)cc1)C(=O)Nc1ccc(Cl)cc1 (stereo not drawn) | 19.5 |
| CCCCc1nc2cc(Cl)ccc2o1 | 13.8 |
| C=C[C@]1(C)C[C@H]1[C@H](NP(=O)(c1ccccc1)c1ccccc1)c1ccccc1 | 16.6 |
| CC(=O)Nc1ccc(S(=O)(=O)NCCC(=O)N2CCCCC2)cc1 | 12.4 |
| O=C(COc1ccccc1)Nc1nc2cc3c(cc2s1)OCO3 | 17.4 |
| Cc1ccc(N(Cc2cc3ccccc3[nH]c2=O)S(C)(=O)=O)cc1 | 10.2 |
| O=S(=O)(Nc1cccc(S(=O)(=O)N2CCOCC2)c1)c1ccc2c(c1)OCCO2 | 16.1 |
| Cc1cc(C)nc(NS(=O)(=O)c2ccc(NS(=O)(=O)c3ccccc3)cc2)n1 | 4.46 |
| CC(C)(C)NC(=O)C1CC(=O)N(CCc2ccc(F)cc2)C1 (stereo not drawn) | 13.9 |
| Cc1nc(SCC(N)=O)c(C#N)c(C)c1C | 11.4 |
| Cc1snc(SCC(=O)c2ccc(Cl)cc2)c1C#N | 3.58 |
| COc1ccc(NC(=O)c2c[nH]n3c(=O)cc(C4CCN(C(=O)OC(C)(C)C)CC4)nc23)cc1Cl | 20.3 |

| SMILES | hERG current change (%, negative = inhibition) at 1uM [%] |
| --- | --- |
| Cc1cc2c(NC3CCCCC3)ncnc2s1.Cl | 12 |
| CCN1C(=NCc2ccc(OC)cc2)N[C@@H](c2ccccc2)C(C(=O)OC)=C1C | -15.8 |
| O=C(Cc1ccc(S(=O)(=O)N2CCOCC2)s1)Nc1ccccc1N1CCOCC1 | 6.76 |
| COc1ccc(S(=O)(=O)N2CCOC23CCN(S(=O)(=O)c2c(C)cc(C)cc2C)CC3)cc1 | 2.86 |
| COc1cc2c(cc1NC(=O)C(C)OC(=O)/C=C/c1ccc(OC(F)F)cc1)oc1ccccc12 (stereo not drawn) | 6.56 |
| Cc1ccnc(NC(=O)c2cc(F)c(F)cc2Cl)n1 | 14.5 |
| COc1ccc(C2NCCO2)cc1OC (stereo not drawn) | 2.7 |
| O=C(COC(=O)CSc1ccc(F)cc1)NC1CCCCCC1 | 9.31 |
| Cn1nccc1NC(=O)Nc1cccc(Cl)c1 | 21.6 |
| COc1ccc(OC)c(S(=O)(=O)N2CCC(C(=O)Nc3cccc(C(F)(F)F)c3)CC2)c1 | 6.39 |
| CC1(C)C(=O)NCCN1C(=O)CCC(=O)O | -3.77 |
| COc1ccc(CCCc2nnc(SCC(=O)NN)o2)c(C)c1 | 12.4 |
| O=C(CSc1cccc[n+]1[O-])Nc1cccc(S(=O)(=O)NC2=NCCCCC2)c1 | 23.1 |
| Cc1c(C)n2c(SCC(=O)N3CCN(c4ccccc4)CC3)nnc2[nH]c1=O | -6.68 |
| C=CCNC(=S)NNc1nc(Nc2ccccc2)nc(N2CCCCC2)n1 | 9.42 |
| Cc1cc(S(=O)(=O)N(Cc2ccc3c(c2)OCO3)CC2CCCO2)ccc1-n1cnnn1 (stereo not drawn) | 12.1 |
| CNC(=S)N1CCN(c2ccccn2)CC1 | -0.557 |
| CCOC(=O)CN(C(=O)COc1nc(-c2ccccc2)cc(C)c1C#N)c1cccc(OC)c1 | 7.05 |
| Cc1cccc(N2CCN(S(=O)(=O)c3cc4c(cc3Cl)NC(=O)CO4)CC2)c1C | 15.3 |

— paper PMC4336329 (PLoS ONE, 2015)
